Measurements: the supplement of paper PMC4967469
A lower IC50 marks a more sensitive line; where the fit passes the top or lowest dose, that dose stands as a limit. AUC, from the same fit, is the share of area under the viability curve across the 256-fold dose range: 1 means no effect, lower means more sensitive. For part of these data: Any top dose called inferred was calculated from the reported fits. For part of these data: An entry number marks a drug with two screens in the source, which often give different values.

Experiments:
Test in all cases: Viability of human cancer cell lines after 72 h of drug (GDSC screen)
NSC-87877 = compound: O=S(=O)(O)c1ccc2cc(N=Nc3cc(S(=O)(=O)O)c4cccnc4c3O)ccc2c1 [NSC-87877]; conditions: top dose 16 µM; top dose inferred
Description: (§1)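 Human cancer cell lines in 384-well plates, medium with 10% serum, drug for 72 h over a 256-fold dose range (nine 2-fold or five 4-fold steps up to the top dose). Adherent lines were fixed and stained with the nucleic acid dye Syto60, suspension lines read with resazurin; signal relative to control wells, capped at 0 and 100%. One two-parameter sigmoid per drug and line, fitted in a mixed model over all curves with the slope shared within a line.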

OSI-930 = compound: O=C(Nc1ccc(OC(F)(F)F)cc1)c1sccc1NCc1ccnc2ccccc12 [OSI-930]; conditions: top dose 10.24 µM
Description: as §1

Masitinib = compound: Cc1ccc(NC(=O)c2ccc(CN3CCN(C)CC3)cc2)cc1Nc1nc(-c2cccnc2)cs1 [Masitinib]; conditions: top dose 20 µM
Description: as §1

Tamoxifen = compound: CC/C(=C(\c1ccccc1)c1ccc(OCCN(C)C)cc1)c1ccccc1 [Tamoxifen]; conditions: top dose 5 µM
Description: as §1

BX-912 = compound: O=C(Nc1cccc(Nc2ncc(Br)c(NCCc3cnc[nH]3)n2)c1)N1CCCC1 [BX-912]; conditions: top dose 10.24 µM; top dose inferred
Description: as §1

VNLG/124 = compound: CCCC(=O)OCc1ccc(OC(=O)/C=C(C)/C=C/C=C(C)/C=C/C2=C(C)CCCC2(C)C)cc1 [VNLG/124]; conditions: top dose 5.12 µM; top dose inferred
Description: as §1

Bleomycin = compound: Cc1c(N)nc([C@H](CC(N)=O)NC[C@H](N)C(N)=O)nc1C(=O)N[C@H](C(=O)N[C@H](C)[C@@H](O)[C@H](C)C(=O)N[C@H](C(=O)NCCc1nc(-c2nc(C(=O)NCCC[S+](C)C)cs2)cs1)[C@@H](C)O)[C@@H](OC1OC(CO)C(O)C(O)C1OC1OC(CO)C(O)C(OC(N)=O)C1O)c1cnc[nH]1 [Bleomycin]
Description: as §1

LAQ824 = compound: O=C(/C=C/c1ccc(CN(CCO)CCc2c[nH]c3ccccc23)cc1)NO [LAQ824]; conditions: top dose 1.024 µM; top dose inferred
Description: as §1

[1] = top dose 50 µM, screen: GDSC drug entry 1378, top dose inferred
[2] = top dose 64 µM, screen: GDSC drug entry 190

| Cell Line | AUC (NSC-87877) | IC50 (NSC-87877) | AUC (OSI-930) | IC50 (OSI-930) | AUC (Masitinib) | IC50 (Masitinib) | AUC (Tamoxifen) | IC50 (Tamoxifen) | AUC (BX-912) | IC50 (BX-912) | AUC (VNLG/124) | IC50 (VNLG/124) | AUC (Bleomycin; [1]) | IC50 (Bleomycin; [1]) | AUC (Bleomycin; [2]) | IC50 (Bleomycin; [2]) | AUC (LAQ824) | IC50 (LAQ824) |
| --- | --- | --- | --- | --- | --- | --- | --- | --- | --- | --- | --- | --- | --- | --- | --- | --- | --- | --- |
| LU-99A (large cell lung carcinoma, adherent) | 0.987 | > 16 µM | 0.963 | > 10.2 µM | 0.974 | > 20 µM | 0.986 | > 5 µM | 0.868 | 9.17 µM | 0.986 | > 5.12 µM | 0.062 | < 0.195 µM | 0.028 | < 0.25 µM | 0.433 | 0.042 µM |
| MKN1 (stomach, adherent) | 0.986 | > 16 µM | 0.981 | > 10.2 µM | 0.958 | > 20 µM | 0.982 | > 5 µM | 0.905 | > 10.2 µM | 0.982 | > 5.12 µM | 0.687 | 10.8 µM | 0.238 | 0.668 µM | 0.514 | 0.07 µM |
| ML-1 (thyroid, adherent) | 0.984 | > 16 µM | 0.984 | > 10.2 µM | 0.919 | > 20 µM | 0.982 | > 5 µM | 0.835 | 8.42 µM | 0.942 | > 5.12 µM | 0.838 | 42.2 µM | 0.396 | 1.97 µM | 0.351 | 0.0229 µM |
| MZ7-mel (melanoma, adherent) | 0.963 | > 16 µM | 0.967 | > 10.2 µM | 0.864 | 18.6 µM | 0.985 | > 5 µM | 0.951 | > 10.2 µM | 0.985 | > 5.12 µM | 0.694 | 11.2 µM | 0.158 | 0.337 µM | 0.369 | 0.0274 µM |
| NCI-H522 (lung adenocarcinoma, adherent) | 0.895 | > 16 µM | 0.969 | > 10.2 µM | 0.961 | > 20 µM | 0.981 | > 5 µM | 0.952 | > 10.2 µM | 0.984 | > 5.12 µM | 0.718 | 14.7 µM | 0.242 | 0.616 µM | 0.256 | 0.011 µM |
| NCI-H1573 (lung adenocarcinoma, adherent) | 0.986 | > 16 µM | 0.978 | > 10.2 µM | 0.954 | > 20 µM | 0.99 | > 5 µM | 0.979 | > 10.2 µM | 0.99 | > 5.12 µM | 0.983 | > 50 µM | 0.946 | > 64 µM | 0.773 | 0.387 µM |
| NCI-H1793 (lung adenocarcinoma, adherent) | 0.979 | > 16 µM | 0.959 | > 10.2 µM | 0.972 | > 20 µM | 0.974 | > 5 µM | 0.971 | > 10.2 µM | 0.982 | > 5.12 µM | 0.847 | > 50 µM | 0.748 | 28.4 µM | 0.848 | > 1.02 µM |
| NCI-H2030 (lung adenocarcinoma, adherent) | 0.983 | > 16 µM | 0.953 | > 10.2 µM | 0.874 | > 20 µM | 0.939 | > 5 µM | 0.918 | > 10.2 µM | 0.978 | > 5.12 µM | 0.616 | 6.81 µM | 0.513 | 4.36 µM | 0.462 | 0.0498 µM |
| NCI-H2085 (lung adenocarcinoma, adherent) | 0.986 | > 16 µM | 0.956 | > 10.2 µM | 0.905 | > 20 µM | 0.982 | > 5 µM | 0.962 | > 10.2 µM | 0.965 | > 5.12 µM | 0.864 | 49.7 µM | 0.415 | 2.29 µM | 0.488 | 0.0593 µM |
| NCI-H2170 (lung squamous cell carcinoma, adherent) | 0.987 | > 16 µM | 0.97 | > 10.2 µM | 0.964 | > 20 µM | 0.977 | > 5 µM | 0.942 | > 10.2 µM | 0.983 | > 5.12 µM | 0.869 | 49.8 µM | 0.093 | < 0.25 µM | 0.431 | 0.0411 µM |
| NCI-H2228 (lung adenocarcinoma, adherent) | 0.932 | > 16 µM | 0.943 | > 10.2 µM | 0.914 | > 20 µM | 0.961 | > 5 µM | 0.942 | > 10.2 µM | 0.93 | > 5.12 µM | 0.775 | 31 µM | 0.342 | 1.16 µM | 0.369 | 0.0232 µM |
| OAW-28 (ovary, adherent) | 0.983 | > 16 µM | 0.982 | > 10.2 µM | 0.89 | > 20 µM | 0.977 | > 5 µM | 0.86 | > 10.2 µM | 0.982 | > 5.12 µM | 0.709 | 14.4 µM | 0.629 | 9.97 µM | 0.528 | 0.0781 µM |
| OSC-19 (head and neck, adherent) | 0.987 | > 16 µM | 0.978 | > 10.2 µM | 0.973 | > 20 µM | 0.978 | > 5 µM | 0.917 | > 10.2 µM | 0.986 | > 5.12 µM | 0.484 | 2.82 µM | 0.481 | 3.55 µM | 0.465 | 0.0512 µM |
| PCI-38 (head and neck, adherent) | 0.986 | > 16 µM | 0.981 | > 10.2 µM | 0.933 | > 20 µM | 0.985 | > 5 µM | 0.972 | > 10.2 µM | 0.982 | > 5.12 µM | 0.289 | 0.792 µM | 0.625 | 8.85 µM | 0.727 | 0.283 µM |
